Measured values from PubChem BioAssay AID485364 (National Center for Advancing Translational Sciences (NCATS), 2010).
The campaign covered roughly 360,000 compounds. About 11,000 (3.1%) were called active. The shares of active, inactive and inconclusive entries below differ from those in the screen. The call rests on the fitted dose curve; in most records, active means well fitted inhibition curve with a large enough effect; inconclusive means small, poorly fitted or top-dose-only effect; inactive means no such curve, though single readings can be large or run the other way. No potency is given beside an inconclusive call; the fits are too rough.

Biological target: Schistosoma mansoni thioredoxin glutathione reductase (TGR) (UniProt Q962Y6)
Assay: qHTS Assay for the Inhibitors of Schistosoma Mansoni Peroxiredoxins; further: nearly all actives have a fitted effect of over 60% in size
Settings: purified TGR, DTNB reduction, TNB absorbance 405 nm; activity change, negative = inhibition: at 114 µM (top of the series) unless noted
Outline: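 TGR 20 nM + NADPH 100 uM (dispensed conc.), cpd preinc 15 min RT; start with NADPH (500 uM addition) then DTNB (15 mM addition). Kinetic TNB absorbance, 405 nm filter. Four-parameter Hill fit across titration.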
On the % scale 0 is the no-effect control and ±100 the full control effect; potency means the concentration at half of the fitted maximal effect; tags describe the fitted curve by direction and shape.

Row | Compound | Potency | activity change, negative = inhibition
1 | CCCCn1c(O)c(C(C)=NCCCN(C)C)c(=O)[nH]c1=O | inconclusive [inhibitor, full curve, poor fit] | 
2 | Cn1cccc1CC(=O)NNC(=S)NC(=O)c1ccccc1Br | inconclusive [inhibitor, partial curve] | 
3 | O=[N+]([O-])C(=C1Nc2ccccc2N1)/C(Cl)=C(/Cl)Br | active: 6.31 µM | 
4 | Cc1cc(-c2nnc(SCc3cccnc3)o2)no1 |  | inactive: 4.47%
5 | Cc1cc(S(=O)(=O)NCc2cccnc2)ccc1F |  | inactive: 7.4%
6 | Cc1ccc(C2/C(=C(/O)c3ccc(Cl)cc3)C(=O)C(=O)N2CC2CCCO2)o1 (stereo not given) | inconclusive [inhibitor, partial curve, poor fit] | 
7 | CCN(Cc1ccncc1)C(=O)c1ccc(Br)o1 | inconclusive [inhibitor, single point] | 
8 | O=C(CCN1C(=O)c2ccccc2C1=O)N1CCN(c2ccccn2)CC1 | inconclusive [inhibitor, full curve, poor fit] | 
9 | COc1ccc(CNC(=O)CCS(=O)(=O)c2cccc3nonc23)cc1 | active: 12.6 µM | 
10 | O=C(O)C1=C[C@@H](c2ccccc2)C[C@@H](OCc2ccc(CO)cc2)O1 | inconclusive [inhibitor, partial curve] | 
11 | Cc1c(C(=O)N/N=C/c2ccccc2)[nH]c2ccc(Cl)cc12 |  | inactive: -1.38%
12 | CCOC(=O)c1cc2ccc(OC)cc2oc1=O |  | inactive: -0.566%
13 | O=C(CSc1nnc(-c2ccncc2)n1Cc1ccco1)Nc1ccccc1F | active: 50.1 µM | 
14 | C[C@H](NC(=O)OC(C)(C)C)c1nnc(SCC(N)=O)o1 | inconclusive [inhibitor, single point] | 
15 | Cc1ccc(CN2CCN(/N=C/c3cccn3C)CC2)c(C)c1 | inconclusive [inhibitor, partial curve] | 
16 | O=C1Nc2ccccc2/C1=N/c1sc2c(c1C(=O)NCCc1ccccc1)CCCC2 | inconclusive [inhibitor, full curve, poor fit] | 
17 | O=C(Cn1cnc2sc(-c3ccccc3)cc2c1=O)NCc1ccco1 | active: 12.6 µM | 
18 | Cc1ccc2oc(-c3ccc(C)c(NC(=O)/C=C/c4ccco4)c3)nc2c1 | inconclusive [inhibitor, partial curve] | 
19 | CCOC(=O)Cn1nc(-c2ccc(C)cc2)ccc1=O | inconclusive [inhibitor, single point] | 
20 | O=C(NCc1ccccc1Cl)c1nnc(Cc2cccc(F)c2)o1 |  | inactive: 10.3%
21 | O=C(Nc1ccc(F)cc1)c1cc2cc(Cl)ccc2[nH]1 |  | inactive: -6.95%
22 | CC1=C(C#N)C(=O)NC(=O)/C1=C/c1ccc(-c2ccc(S(N)(=O)=O)cc2)o1 | active: 8.91 µM | 
23 | O=C(C1CCCN(C2CC(=O)N(c3ccc(F)cc3)C2=O)C1)N1CCCC1 (stereo not given) | inconclusive [inhibitor, partial curve] | 

Row | Compound | Potency | activity change, negative = inhibition
24 | CCS(=O)(=O)N1CCC(C(=O)Oc2ccccc2OC)CC1 |  | inactive: -1.04%
25 | COc1ccc(NC(=O)COc2coc(CN3CCCc4ccccc43)cc2=O)cc1 | inconclusive [inhibitor, single point] | 
26 | Cc1ccccc1NC(=S)NC(NC(=O)CF)C(Cl)(Cl)Cl (stereo not given) | inconclusive [inhibitor, partial curve] | 
27 | O=C(c1cccs1)N1CCC(N2CCN(c3ccccc3)CC2)CC1 | inconclusive [inhibitor, partial curve] | 
28 | Cc1cc(C(F)(F)F)n(-c2nc(C(=O)Nc3ccccc3Oc3ccccc3)cs2)n1 | inconclusive [inhibitor, partial curve, poor fit] | 
29 | CCOc1ccc(CC(=NCCc2ccccc2)C2=C(O)CC(C)(C)CC2=O)cc1OCC | inconclusive [inhibitor, partial curve] | 
30 | CC(=O)N1C(=S)NC(=O)/C1=C1/C(=O)N(CC(=O)Nc2cccc(C)c2)c2ccccc21 | inconclusive [inhibitor, partial curve] | 
31 | Cc1cccc(NS(=O)(=O)c2ccc(C)c(C(=O)NCC(c3ccccc3)N(C)C)c2)c1 (stereo not given) | inconclusive [inhibitor, partial curve] | 
32 | CCOc1ccc(CCNC(=O)c2c(C)oc3ncn(CC(C)C)c(=O)c23)cc1OCC |  | inactive: 0.217%
33 | O=C(CN1C(=O)NC2(CCCCCCC2)C1=O)N1CCN(C(=O)c2ccco2)CC1 | inconclusive [inhibitor, full curve, poor fit] | 
34 | CCOC(=O)c1c(-c2ccc(C)o2)csc1NC(=S)NC(=O)N(C)C | inconclusive [inhibitor, partial curve] | 
35 | CCOC(=O)N1C(=O)[C@](CC)(c2ccccc2)N1C(=O)OCC | active: 2.82 µM | 
36 | CCOC(=O)C(C)(C)N(Cc1ccc(Cl)cc1)S(=O)(=O)c1ccc(Cl)c([N+](=O)[O-])c1 | inconclusive [inhibitor, partial curve] | 
37 | O=c1c2ccccc2c(C=NC2CCS(=O)(=O)C2)c(O)n1-c1ccccc1 (stereo not given) | inconclusive [inhibitor, single point] | 
38 | COc1cccc(/C=C2\N=C(C3CCCCC3)OC2=O)c1OC | inconclusive [inhibitor, full curve] | 
39 | CCCn1c(CCC(=O)O)ccc1-c1cccs1 | active: 3.55 µM | 
40 | COc1cc2c(cc1OC)C1O[C@](c3ccsc3)(C2)Oc2cc(C)n(Cc3ccccc3)c(=O)c21 | inconclusive [inhibitor, full curve, poor fit] | 
41 | O=C(c1ccc(CS(=O)(=O)c2ccccc2)o1)N1CCOCC1 | active: 39.8 µM | 
42 | Cc1cc(C)c2nc(N3C(=O)C(O)=C(C(=O)c4ccco4)C3c3ccco3)sc2c1 (stereo not given) | inconclusive [inhibitor, full curve] | 
43 | O=C(/C=C/c1cccnc1)c1ccc(O)cc1 | active: 44.7 µM | 
44 | Cc1ccc(C23CC4CC(CC(CN)(C4)C2)C3)cc1 |  | inactive: 10.4%
45 | CC1OC23CCCCC2C(C#N)(C(=N)O3)C1(C#N)C#N (stereo not given) | inconclusive [inhibitor, partial curve] | 
